Experimental data: article PMC4336329 (PLoS ONE, 2015)
Among all 310,000 compounds or so, about 2,200 (0.71%) showed an effect of 50% or more. Effects have a minus sign here. This is one part of the list.

Biological target: human ether-à-go-go-related gene (hERG) potassium channel (human, UniProt Q12809)
Assay: primary screen, population patch clamp on CHO cells stably expressing hERG

human ether-à-go-go-related gene (hERG) potassium channel, sequence (Q12809 whole entry, looked up): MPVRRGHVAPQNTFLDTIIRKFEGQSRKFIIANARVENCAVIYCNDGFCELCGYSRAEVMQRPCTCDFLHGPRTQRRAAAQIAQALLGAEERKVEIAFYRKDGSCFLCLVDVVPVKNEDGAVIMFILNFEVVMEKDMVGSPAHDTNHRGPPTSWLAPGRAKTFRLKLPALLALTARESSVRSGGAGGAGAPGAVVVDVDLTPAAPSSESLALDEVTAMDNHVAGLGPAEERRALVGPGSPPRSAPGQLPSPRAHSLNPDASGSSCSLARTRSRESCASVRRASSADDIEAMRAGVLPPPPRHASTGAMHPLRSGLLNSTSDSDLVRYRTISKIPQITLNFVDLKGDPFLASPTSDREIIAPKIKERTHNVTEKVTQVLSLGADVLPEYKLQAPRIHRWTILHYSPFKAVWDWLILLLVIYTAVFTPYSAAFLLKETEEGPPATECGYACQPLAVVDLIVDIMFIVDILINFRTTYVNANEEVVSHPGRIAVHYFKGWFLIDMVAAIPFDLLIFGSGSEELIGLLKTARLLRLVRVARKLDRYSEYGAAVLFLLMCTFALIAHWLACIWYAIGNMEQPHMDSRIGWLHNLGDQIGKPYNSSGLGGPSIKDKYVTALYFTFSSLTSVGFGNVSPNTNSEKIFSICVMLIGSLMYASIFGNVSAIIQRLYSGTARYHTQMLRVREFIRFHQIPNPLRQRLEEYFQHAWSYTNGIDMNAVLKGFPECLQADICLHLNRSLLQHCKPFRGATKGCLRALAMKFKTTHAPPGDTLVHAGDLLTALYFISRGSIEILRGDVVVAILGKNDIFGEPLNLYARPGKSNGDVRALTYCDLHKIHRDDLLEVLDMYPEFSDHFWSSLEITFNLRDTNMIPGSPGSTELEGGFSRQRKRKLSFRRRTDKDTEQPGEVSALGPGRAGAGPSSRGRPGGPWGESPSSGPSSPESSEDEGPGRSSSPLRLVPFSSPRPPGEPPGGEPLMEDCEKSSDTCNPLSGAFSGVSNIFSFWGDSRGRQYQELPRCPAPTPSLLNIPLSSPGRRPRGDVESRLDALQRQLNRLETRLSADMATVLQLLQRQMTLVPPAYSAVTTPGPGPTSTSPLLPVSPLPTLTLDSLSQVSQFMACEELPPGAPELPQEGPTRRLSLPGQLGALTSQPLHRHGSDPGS

First: CC(C)C(=O)Nc1cccc(NC(=O)c2cccnc2)c1
Second: O=C(Nc1ccccc1C(=O)Nc1ccncc1)c1ccccc1
The “hERG current change (%, negative = inhibition) at 1uM” value of the first is lower: -1.01% for the first, 11% for the second.

Going from `CCCc1nnc(NC(=O)COC(=O)c2cc(C)nc3ccccc23)s1` to `CCOC(=O)c1c(NC(=O)CSc2nncs2)sc(C)c1-c1ccccc1`, the “hERG current change (%, negative = inhibition) at 1uM” value rises from 8.02% to 9.46%.

Compared with `O=C(NCC1CCCO1)C(C(=O)c1ccccc1)n1ccccc1=O` (stereo not shown), `C/C(=C(/NC(=O)c1ccccc1)C(=O)O)c1ccco1` is higher in “hERG current change (%, negative = inhibition) at 1uM” value: 7.06% for the first, 9.74% for the second.

Compared with `C=CCn1cnc2c(sc3nc(C)cc(C)c32)c1=O`, `CCn1c(SCC(=O)Nc2cc(C)ccc2C)nnc1-c1cnccn1` is lower in “hERG current change (%, negative = inhibition) at 1uM” value: 13.9% for the first, 0.733% for the second.

First: COC(=O)c1ccc(C(=O)OC)c(NC(=O)c2cnc3n(c2=O)CCS3)c1
Second: CCOc1ncccc1C(=O)Nc1ccc(OC)c(S(=O)(=O)N2CCCCC2)c1
The “hERG current change (%, negative = inhibition) at 1uM” value of the first is lower: 12.2% for the first, 12.9% for the second.

Going from `O=C(O)CCC(=O)NCCc1cccc(Cl)c1` to `COc1ccc(CCNC(=O)CCCOc2cccc(C)c2C)cc1OC`, the “hERG current change (%, negative = inhibition) at 1uM” value falls from 12.9% to 0.536%.

First: O=S(=O)(c1ccc(Cl)cc1Br)N1CCCCC1
Second: CCn1cc(C(=O)NCC2CCCO2)c(=O)c2cc(S(=O)(=O)N3CCC(C)CC3)ccc21 (stereo not shown)
The “hERG current change (%, negative = inhibition) at 1uM” value of the first is higher: -0.793% for the first, -6.5% for the second.

First: CC(=O)c1cccc(N2C(=NC(=O)CCc3ccccc3)SC3CS(=O)(=O)CC32)c1 (stereo not shown)
Second: O=C1CCN(Cc2ccccc2)C(=O)N1c1ccccc1
The “hERG current change (%, negative = inhibition) at 1uM” value of the first is higher: 21.2% for the first, -5.59% for the second.

First: CN1CCN(CC/C=C2\c3ccccc3Sc3ccc(S(=O)(=O)N(C)C)cc32)CC1
Second: CN(C)CCNC(=O)c1ccc2c(c1)NC(=O)c1ccccc1S2
The “hERG current change (%, negative = inhibition) at 1uM” value of the first is lower: -6.73% for the first, 12.5% for the second.

Going from `CCCCc1ccc(NC(=S)N2CCCC(CO)C2)cc1` (stereo not shown) to `COc1ccc(C(=O)NC2CCN(C(=S)Nc3ccccc3)CC2)cc1`, the “hERG current change (%, negative = inhibition) at 1uM” value falls from 10.3% to 9.91%.

First: CN(C(=O)CSCC(=O)O)C1CCCCC1
Second: CCOc1ccccc1NC(=O)c1cccc(NC(=O)C2CCCC2)c1
The “hERG current change (%, negative = inhibition) at 1uM” value of the first is lower: 2.98% for the first, 9.43% for the second.

Going from `O=C(NCCc1ccccn1)C1CCCN1S(=O)(=O)c1ccc(Cl)cc1` (stereo not shown) to `CC(=O)Nc1ccc(SCC(=O)N2CCN(S(=O)(=O)c3ccccc3)CC2)cc1`, the “hERG current change (%, negative = inhibition) at 1uM” value falls from 12% to 6.2%.

Going from `CCOc1ccccc1NC(=O)COc1coc(CN2CCc3ccccc32)cc1=O` to `COc1ccccc1NC(=O)Cn1cncc1-c1ccc([N+](=O)[O-])cc1`, the “hERG current change (%, negative = inhibition) at 1uM” value rises from 11.6% to 13.7%.

Going from `CC(C)(C)n1nc2c(c1NC(=O)c1ccccc1C(F)(F)F)CS(=O)(=O)C2` to `CSc1sc(C(=O)N(C)C)c2c1S(=O)(=O)N(C)c1ccccc1-2`, the “hERG current change (%, negative = inhibition) at 1uM” value rises from 9.78% to 11.9%.

First: Cn1cccc1C(=S)N1CCOCC1
Second: COc1ccc(-c2c3c(=O)n(C)c(=O)n(C)c3cn2N2CCOCC2)cc1
The “hERG current change (%, negative = inhibition) at 1uM” value of the first is higher: 5.05% for the first, -17.8% for the second.

Compared with `CC1Cc2nc(SCC(=O)Nc3ccc(F)cc3)n(C)c(=O)c2S1` (stereo not shown), `Cn1c(SCC(=O)Nc2ccc(F)cc2)nnc1-c1cccnc1` is lower in “hERG current change (%, negative = inhibition) at 1uM” value: 3.18% for the first, -2.78% for the second.

Going from `COCCNC(=O)c1ccccc1N(Cc1ccccc1)S(=O)(=O)c1ccc(C)cc1` to `CC(=O)Nc1ccc(S(=O)(=O)N(C)c2ccccc2)cc1`, the “hERG current change (%, negative = inhibition) at 1uM” value falls from 5.11% to -0.494%.

Compared with `CC1CC2C3CCC4=CC(=O)C=CC4(C)[C@@]3(Cl)C(O)CC2(C)C1(O)C(=O)CO` (stereo partly shown), `C[C@]12CCC3C(CC=C4C[C@@H](O)CC[C@@]43C)C1CCC2[C@]1(C)CCC(=O)O1` (stereo partly shown) is lower in “hERG current change (%, negative = inhibition) at 1uM” value: 11.3% for the first, 5.54% for the second.

First: O=c1c2c3c(sc2nc2n1CCCCC2)CCCC3
Second: O=C1CCc2cc(S(=O)(=O)N3CCC(C(=O)NC4CCCc5ccccc54)CC3)ccc2N1 (stereo not shown)
The “hERG current change (%, negative = inhibition) at 1uM” value of the first is lower: 7.53% for the first, 14.8% for the second.

First: Cn1cccc1/C=N/NC(=O)c1sc2ccccc2c1Cl
Second: O=C(NCCc1c[nH]c2ccccc12)c1ccco1
The “hERG current change (%, negative = inhibition) at 1uM” value of the first is higher: 13.1% for the first, 8.39% for the second.

First: Oc1ccc(CCNc2ncnc3ccc(Cl)cc23)cc1
Second: Nc1ncccc1OCc1ccc(Br)cc1
The “hERG current change (%, negative = inhibition) at 1uM” value of the first is higher: 2.36% for the first, 2.16% for the second.

First: Cc1c(NC(=O)C2(C)CCCCC2)c(=O)n(-c2ccccc2)n1C
Second: Cc1c(NC(=O)C(C)OC(=O)CCc2c[nH]c3ccccc23)c(=O)n(-c2ccccc2)n1C (stereo not shown)
The “hERG current change (%, negative = inhibition) at 1uM” value of the first is lower: -0.514% for the first, 14.3% for the second.

First: COC/C=C/C1=CC2=CC(=O)C(C)(OC(=O)c3cnc4ccccc4n3)C(=O)C2=CN1Cc1ccccc1 (stereo not shown)
Second: Cc1cc(/C=C2/C(=N)N3C(c4ccccc4)=CSC3=NC2=O)c(C)n1-c1ccccc1
The “hERG current change (%, negative = inhibition) at 1uM” value of the first is higher: -0.128% for the first, -3.2% for the second.

Going from `CCN(CC)CCCN(C(=O)c1cccc(C)c1)c1nc(-c2ccc(OC)cc2)cs1` to `COc1ccc(-c2noc(-c3ccccc3C(=O)Nc3cccc(OC)c3)n2)cc1`, the “hERG current change (%, negative = inhibition) at 1uM” value rises from -22.8% to 1.23%.

Compared with `O=C(Nc1ccc2c(c1)OCCO2)c1ccc(Br)o1`, `Cc1ccc(S(=O)(=O)N2CCN(C(=O)C3CC(=O)N(c4ccc5c(c4)OCCO5)C3)CC2)cc1` (stereo not shown) is lower in “hERG current change (%, negative = inhibition) at 1uM” value: 2.34% for the first, -1.83% for the second.

Compared with `COc1cc(C(=O)N2CCCN(C)CC2)cc(OC)c1C.Cl`, `COc1ccc(S(=O)(=O)N2CCC(C(=O)N3CCN(c4ccccc4OC)CC3)CC2)cc1` is lower in “hERG current change (%, negative = inhibition) at 1uM” value: 15.6% for the first, 12.9% for the second.

First: O=C(Nc1ccc(F)cc1)/C(Cl)=C/c1ccccc1
Second: CN(CC(=O)Nc1cccc(C(F)(F)F)c1)Cc1ccccc1
The “hERG current change (%, negative = inhibition) at 1uM” value of the first is higher: 11% for the first, 4.78% for the second.

Compared with `CCNC(=S)N(CCc1cccc(C)c1)Cc1cc2cc(OC)c(OC)cc2[nH]c1=O`, `CCCCN(Cc1ccccc1)S(=O)(=O)c1ccc2c(c1)n(C)c(=O)c(=O)n2C` is lower in “hERG current change (%, negative = inhibition) at 1uM” value: 6.25% for the first, 4.18% for the second.

Compared with `COc1cccc(CN2C(=O)C3CCCN3c3ccc(S(=O)(=O)N4CCOCC4)cc32)c1` (stereo not shown), `CC(=O)c1ccc(NC(=O)COC(=O)CCc2ccc(S(=O)(=O)N3CCOCC3)cc2)cc1` is lower in “hERG current change (%, negative = inhibition) at 1uM” value: 11% for the first, 7.7% for the second.

Compared with `CCOC(=O)c1c(-c2ccccc2)csc1NC(=O)CSc1nc(N)cc(N)n1`, `Cc1csc(SCc2ccccc2C(=O)O)n1` is lower in “hERG current change (%, negative = inhibition) at 1uM” value: 12% for the first, 8.4% for the second.

First: COC(=O)c1ccc(COc2ccccc2/C=C(\C#N)C(=O)NC(C)C)cc1
Second: COC(=O)c1ccccc1NC(=O)CN(Cc1ccc(Cl)cc1)S(C)(=O)=O
The “hERG current change (%, negative = inhibition) at 1uM” value of the first is higher: 4.15% for the first, -6.98% for the second.

Going from `CC(=O)C1=C(O)C(=O)N(c2ccc(F)cc2)C1c1ccc(C)cc1` (stereo not shown) to `COc1cccc(/C=C2/NC(=O)N(CC(=O)Nc3ccc(C)cc3)C2=O)c1OCc1cccc(C(=O)O)c1`, the “hERG current change (%, negative = inhibition) at 1uM” value rises from 14.7% to 18%.

Compared with `Cc1ccc(C(=O)NN2C(=O)C3C4C=CC(C5CC45)C3C2=O)cc1` (stereo not shown), `Cc1ccc(C)c(NC(=O)CN(C)S(=O)(=O)c2ccccc2)c1` is lower in “hERG current change (%, negative = inhibition) at 1uM” value: 10.3% for the first, -4.38% for the second.

Compared with `CCOC(=O)COc1ccc2c3c(c(=O)oc2c1C)CCC3`, `Cc1cccc(OCCCCc2c(C)n[nH]c2C)c1C` is lower in “hERG current change (%, negative = inhibition) at 1uM” value: 14.8% for the first, 12.1% for the second.

Compared with `O=[N+]([O-])c1ccc(-c2nnc(-c3ccccc3)c(N3CCOCC3)n2)cc1`, `C/C(=N\NC(=O)c1ccc(Cl)cc1)c1ccc(N2CCOCC2)cc1` is higher in “hERG current change (%, negative = inhibition) at 1uM” value: -7.26% for the first, 12.6% for the second.

Compared with `CN(C)S(=O)(=O)c1ccc(N2CCCC2)c(C(=O)NCC2COc3ccccc3O2)c1` (stereo not shown), `Cc1ccc2c(c1)N(CCC(=O)NCc1cccnc1)C(=O)CO2` is higher in “hERG current change (%, negative = inhibition) at 1uM” value: -1.12% for the first, 3.33% for the second.

First: O=C(Cn1cnc2c(nnn2Cc2ccc(F)cc2)c1=O)NCc1ccco1
Second: O=C(NCc1ccco1)/C(=C\C=C\c1ccccc1)NC(=O)c1ccccc1Br
The “hERG current change (%, negative = inhibition) at 1uM” value of the first is higher: -3.39% for the first, -41% for the second.

Compared with `COCCSc1nc(N)c(NC(=O)c2ccco2)c(=O)[nH]1`, `Cc1nc(SCC(N)=O)[nH]c(=O)c1Cc1ccc(OC(C)C)cc1` is lower in “hERG current change (%, negative = inhibition) at 1uM” value: 14.1% for the first, 10.1% for the second.

First: Cc1nc2ccc(Oc3ccccc3)cc2s1
Second: CC(C)[C@H](N[C@@H](C)c1ccccc1)c1c(O)ccc2ccccc12
The “hERG current change (%, negative = inhibition) at 1uM” value of the first is lower: 7.35% for the first, 15.2% for the second.

First: CCCCCC(O)(CCN1CCCCC1)c1ccccc1.Cl (stereo not shown)
Second: CC(C)CN1CCN(Cc2c(F)cccc2Cl)CC1CCO (stereo not shown)
The “hERG current change (%, negative = inhibition) at 1uM” value of the first is lower: -84.7% for the first, 1.5% for the second.

First: CN(C(=O)c1ccccc1C(=O)OCC(=O)c1ccc(F)cc1)c1ccccc1
Second: COc1ccc2[nH]c(-c3cccc(F)c3)cc(=O)c2c1
The “hERG current change (%, negative = inhibition) at 1uM” value of the first is lower: 2.34% for the first, 18.5% for the second.

Compared with `Cc1ccc(-c2nc3c(c(=O)[nH]c(=O)n3CC(C)C)n2CC(C)C)cc1[N+](=O)[O-]`, `Cc1c(NC(=O)c2cccs2)cccc1[N+](=O)[O-]` is higher in “hERG current change (%, negative = inhibition) at 1uM” value: 6.12% for the first, 17.3% for the second.

First: COc1ccc(CCNCc2cccn2C)cc1.Cl
Second: COc1ccc(NC(=O)c2cc(Cl)ccc2Cl)c([N+](=O)[O-])c1
The “hERG current change (%, negative = inhibition) at 1uM” value of the first is lower: 5.85% for the first, 7.61% for the second.

Compared with `O=C(C1CC1)N1N=C(c2ccc(Br)cc2)CC1(O)C(F)(F)F` (stereo not shown), `CCOC(=O)c1sc(S(C)(=O)=O)c2c1CC(C)(C)C/C2=N/O` is lower in “hERG current change (%, negative = inhibition) at 1uM” value: 20.7% for the first, 8.27% for the second.
